Reference: PubChem BioAssay AID1347043 (National Center for Advancing Translational Sciences (NCATS), 2019)
Out of some 76,000 compounds screened, about 1,900 (2.5%) were called active. Inconclusive results, whose numbers are uncertain, are shown with a selection of clear calls. Calls follow the shape of the dose curve; as a rule, active = well fitted inhibition curve with a large enough effect; inconclusive = small, poorly fitted or top-dose-only effect; inactive = flat fitted curve, though single readings scatter. A potency beside an inconclusive call is a rough fit, not a confirmed value.

Target: Luciferin 4-monooxygenase (Photinus pyralis) (UniProt P08659)
Test: Firefly luciferase inhibition profiling of diverse chemical library using quantitative high-throughput screening; also: nearly all actives have a fitted effect of over 65% in size
Conditions: purified P. pyralis luciferase, luminescence, biochemical; series mostly up to 115 µM
How it was run: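 Luminescence read by CCD imager after adding enzyme (10nM final) to wells holding compound, titrated in qHTS. Substrates 10uM each D-luciferin and ATP; buffer 50mM Tris acetate pH 7.5, 10mM Mg acetate, Tween-20, BSA.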
Potency is read from the fitted curve at half-maximal effect; tags tell the direction and shape of the fitted curve.

Sequence of UniProt P08659 (P08659 whole entry, looked up): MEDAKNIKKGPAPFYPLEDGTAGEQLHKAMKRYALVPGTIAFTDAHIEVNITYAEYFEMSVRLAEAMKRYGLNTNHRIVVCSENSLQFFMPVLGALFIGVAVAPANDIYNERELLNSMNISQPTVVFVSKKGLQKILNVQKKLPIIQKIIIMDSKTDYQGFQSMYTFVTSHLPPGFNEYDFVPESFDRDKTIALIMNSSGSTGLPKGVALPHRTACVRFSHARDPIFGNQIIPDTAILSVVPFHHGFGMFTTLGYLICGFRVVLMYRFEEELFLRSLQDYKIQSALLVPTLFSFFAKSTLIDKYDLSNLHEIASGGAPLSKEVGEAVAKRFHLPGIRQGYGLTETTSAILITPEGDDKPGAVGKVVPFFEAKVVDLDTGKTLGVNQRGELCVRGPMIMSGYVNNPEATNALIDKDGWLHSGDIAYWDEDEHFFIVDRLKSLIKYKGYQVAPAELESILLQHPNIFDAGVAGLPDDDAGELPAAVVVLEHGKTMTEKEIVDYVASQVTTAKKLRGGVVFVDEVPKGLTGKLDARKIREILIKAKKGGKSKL

| Compound | Potency |
| --- | --- |
| O=C(c1n[nH]c2c1CCCC2)N1CCC2(CC1)N=C(c1ccccc1)NO2 | active: 28.2 µM |
| CC(C)CCN1CCC2(CC1)CC(=O)c1ccc(Cl)cc1O2 | active: 44.7 µM |
| Cn1ccnc1C(=O)N1CC(F)(F)C[C@H]1c1nc(C2CC2)no1 | inconclusive: 44.7 µM [inhibitor, partial curve, poor fit] |
| COc1ccc(-c2cc(N3CCCC(NC(=O)c4ccccc4Br)C3)n[nH]2)cc1 (stereo unspecified) | inconclusive: 44.7 µM [inhibitor, partial curve] |
| CS(=O)(=O)N1CCCC1C(=O)Nc1ccc(-c2cccc(F)c2)cc1 (stereo unspecified) | inconclusive: 39.8 µM [inhibitor, partial curve] |
| COCCC(=O)N1CC(Oc2ccc(-c3noc(-c4ccccc4)n3)cc2)C1 | active: 12.6 µM |
| CC(=O)c1ccc(NC(=O)N2C[C@@H]3C[C@H](C2)c2ccc(NC(=O)Nc4cccc(F)c4)c(=O)n2C3)cc1 | active: 35.5 µM |
| COc1ccc(-c2noc([C@@H]3Cc4nc[nH]c4CN3Cc3ccc(CO)o3)n2)cc1 | active: 39.8 µM |
| Cc1noc(-c2nc(-c3cccc(F)c3)no2)n1 | inconclusive: 39.8 µM [inhibitor, partial curve] |
| O=C(NCc1cccs1)c1noc(-c2ccc(F)cc2)n1 | inconclusive: 44.7 µM [inhibitor, partial curve] |
| COCCC1(N(C)C)CCN(C(=O)CC2CCCCC2)CC1 | inactive |
| O=C(c1cccc(Cl)c1)N1CCC(n2cc(-c3nc(-c4ccccc4)no3)nn2)C1 (stereo unspecified) | inconclusive: 50.1 µM [inhibitor, single point] |
| CCOc1ccc(-c2[nH]ncc2CNC(=O)c2ccc(N(C)C)cc2)cc1 | inconclusive: 50.1 µM [inhibitor, partial curve, poor fit] |
| CS(=O)(=O)c1cnc(NCCc2cnc[nH]2)nc1C1CCCNC1 (stereo unspecified) | inconclusive: 50.1 µM [inhibitor, partial curve] |
| C[C@@H]1C(=O)O[C@H]2[C@H]1CC[C@@]1(C)Cc3sc(Nc4ccccc4)nc3[C@@H](C)[C@H]21 | inconclusive: 0.794 µM [inhibitor, full curve] |
| COc1ccc(C2Cn3cnc(C(=O)N4CCC(C(=O)Nc5ccccc5)CC4)c3CO2)cc1 (stereo unspecified) | inconclusive: 39.8 µM [inhibitor, partial curve, poor fit] |
| CCc1noc(-c2cccn3c(CNC(=O)c4ccncc4)nnc23)n1 | inactive |
| COc1ccccc1-c1cnc(Nc2cccnc2OC)c2c1CCO2 | inconclusive: 56.2 µM [inhibitor, full curve, poor fit] |
| Cc1noc2c(-c3cccnc3NCc3cnccn3)cc(-c3ccccc3)nc12 | inactive |
| CCn1cc(C(=O)N2CCCC(C(=O)Nc3cccc(-c4cc5ccccc5[nH]4)c3)C2)cn1 (stereo unspecified) | inconclusive: 50.1 µM [inhibitor, partial curve] |
| Cc1cccc(-c2noc([C@@H]3C[C@@H](O)CN3Cc3ccccn3)n2)c1 | active: 50.1 µM |
| Fc1ccc(OCCOC2CCNCC2)cc1 | inactive |
| COc1ccc(N2C(=O)CSC23CCN(C(=O)NCc2ccccc2)CC3)cc1 | inactive |
| Cc1ccc(CN2CCN(c3nc4ccccc4o3)CC2CCO)cc1 (stereo unspecified) | inconclusive: 50.1 µM [inhibitor, partial curve] |

| Compound | Potency |
| --- | --- |
| COc1cccc(C(O)c2nc(C(=O)Nc3ccc(OC)c(OC)c3)c(C)o2)c1 (stereo unspecified) | active: 25.1 µM |
| O=C(Cc1ccccc1)NC1CCCc2c1[nH]c1ccccc21 (stereo unspecified) | inactive |
| Cc1c(-c2cn(C)c(=O)n3cc(COc4ccc(Cl)cc4)nc23)cnn1C | inconclusive: 22.4 µM [inhibitor, full curve] |
| Cc1ccc(C2Cn3nnc(-c4nc(-c5ccccc5F)no4)c3CO2)c(C)c1 (stereo unspecified) | inconclusive: 39.8 µM [inhibitor, partial curve, poor fit] |
| O=[N+]([O-])c1ccccc1CN1C[C@H](O)C[C@H]1c1nc(-c2ccc(F)cc2)no1 | active: 50.1 µM |
| O=C1c2cnc(-c3ccccc3)nc2OCCN1Cc1ccc(F)cc1F | inactive |
| O=C(Nc1ccc([C@@H](O)[C@H]2COCC(=O)N2Cc2ccccc2F)cc1)c1cccc(F)c1 | inactive |
| Cc1[nH]cnc1CN1CCNc2cc(-c3ccccc3)ncc2C1 | inconclusive: 89.1 µM [inhibitor, partial curve, poor fit] |
| Cc1ccc(-c2nc(C(=O)NCc3ccccc3Cl)no2)cc1 | inconclusive: 31.6 µM [inhibitor, partial curve] |
| CN(C)C(=O)N1CCCC(CCc2ccccc2C(F)(F)F)C1 (stereo unspecified) | inconclusive: 44.7 µM [inhibitor, partial curve, poor fit] |
| CN1C[C@@H](NS(=O)(=O)c2ccccc2)C[C@H]1c1nc(-c2ccc(F)cc2)no1 | inconclusive: 79.4 µM [inhibitor, partial curve] |
| O=C(c1cccnc1)N1CCC(n2cc(-c3nc(-c4ccccc4)no3)nn2)CC1 | inconclusive: 50.1 µM [inhibitor, partial curve] |
| O[C@@H]1C[C@@H](c2nc(-c3ccncc3)no2)N(Cc2cccs2)C1 | inconclusive: 100 µM [inhibitor, partial curve] |
| CC(=O)Nc1ccc(C(=O)NC[C@@H]2C=C(C)[C@H](CC(=O)NCCN3CCOCC3)C[C@H]2C(C)C)cc1 | active: 44.7 µM |
| CC(C)(CC(=O)O)CC(=O)N1C[C@@H]2C[C@H](C1)c1ccc(-c3cc4ccccc4s3)c(=O)n1C2 | active: 22.4 µM |
| CN1CCCCCCN(S(C)(=O)=O)CCC1=O | inactive |
| COCc1nc2nc(-c3ccccc3)c(-c3cccc([S+](C)(=O)[O-])c3)cc2n1C | inconclusive: 112 µM [inhibitor, partial curve, poor fit] |
| Nc1nc2c(s1)C(c1cccc(F)c1)CC(=O)N2 (stereo unspecified) | inconclusive: 44.7 µM [inhibitor, partial curve, poor fit] |
| CN(C)C(=O)c1ccc(-c2cccc(-c3ccn(CC4CC4)n3)c2)o1 | active: 7.08 µM |
| COc1cccc(CN2Cc3nc(OCc4ccc(F)cc4)ccc3OCC2=O)c1 | inactive |
| Cc1ccc(NC(=O)c2cc3cn(C(C)C)cc3s2)c(C)c1 | inactive |
| CCNC(=O)c1cccnc1OC1CCN(C(=O)CC2CCCC2)C1 (stereo unspecified) | inconclusive: 50.1 µM [inhibitor, partial curve] |
| Cc1nnn2c(C(=O)NC3CC3)cccc12 | active: 7.08 µM |
| CC(C)c1noc(-c2cn(C3CCN(C(=O)Cc4ccc(Br)cc4)C3)nn2)n1 (stereo unspecified) | inactive |

| Compound | Potency |
| --- | --- |
| Cc1ccc2cc(CCC(=O)N3CCOCC3)c(=O)[nH]c2c1 | active: 31.6 µM |
| COc1ccc(NC(=O)C2CCN(C(=O)c3ncn4c3COC(c3ccccc3)C4)CC2)cc1OC (stereo unspecified) | active: 5.62 µM |
| COc1cc(=O)n2c(c1C(=O)NC1CCCCCCC1)CCCC2 | inactive |
| COc1cccc(-c2ccc3c(n2)c(=O)ncn3CC2CC2)c1 | inconclusive: 56.2 µM [inhibitor, partial curve] |
| CC(c1cccs1)N(C)Cc1cccc2ccccc12 (stereo unspecified) | inconclusive: 44.7 µM [inhibitor, partial curve] |
| Cc1cccc(NC(=O)N2CCc3c(C(=O)NC(C)(C)C)cccc32)c1 | active: 7.08 µM |
| CCNC(=O)c1cccc2c1CCN2C(=O)Nc1ccc(C)cc1 | active: 0.282 µM |
| Cc1cc(CNC(=O)c2ccncc2)c2[nH]c(-c3ccccc3)c(C)c2c1 | inconclusive: 20 µM [inhibitor, full curve, poor fit] |
| COc1ccc(C(=O)N2C[C@@H](F)[C@@H](OCc3nc4ccc(F)cc4[nH]3)C2)cc1 | active: 39.8 µM |
| CCCCCNC(=O)c1noc(-c2ccccc2F)n1 | inconclusive: 44.7 µM [inhibitor, partial curve] |
| Cc1ccc(-c2noc([C@@H]3C[C@@H](O)CN3Cc3ccc(C(=O)O)cc3)n2)cc1F | active: 50.1 µM |
| COC(=O)c1ccc2nc(C[C@@H]3C[C@@H](C(C)C)[C@H](CNC(=O)CC(C)(C)CC(=O)O)C=C3C)[nH]c2c1 | inactive |
| CN1C(=O)[C@H]2CN(Cc3ccc(Cl)c(F)c3)C[C@H]2C1=O | inactive |
| Cc1ccc2nc(C(=O)N(C)Cc3cc(-c4cccnc4)no3)cn2c1 | inconclusive: 44.7 µM [inhibitor, partial curve] |
| Cc1cc(C(=O)N2CC[C@@](O)(C3CCOCC3)[C@H](C)C2)ccc1F | inactive |
| O=C(NC[C@H]1Cn2c(-c3ccc4c(c3)OCO4)cnc2CO1)Nc1ccccc1 | inconclusive: 126 µM [inhibitor, single point] |
| CN(C)c1cccc(C(=O)NCC2CCN(c3cc(-c4ccccc4)[nH]n3)CC2)c1 | active: 15.8 µM |
| CC(C)CC(=O)N1CCC2(CC1)CN(Cc1ccccc1)CC2CO (stereo unspecified) | inactive |
| CN(C)C(=O)c1ccc(-c2nnc3ccc(NC(=O)C4CCC4)cn23)cc1 | inconclusive: 50.1 µM [inhibitor, partial curve] |
| O=C1NCCCc2[nH]c(-c3cc(-c4cccc(F)c4)no3)nc21 | active: 2.82 µM |
| CC(C)CN1C(=O)COC[C@@H]1[C@H](O)c1ccc(NC(=O)c2ccc(C#N)cc2)cc1 | inconclusive: 89.1 µM [inhibitor, partial curve, poor fit] |
| O=C(NC1CCCN(c2cc(-c3ccc(Cl)cc3)[nH]n2)C1)c1ccc2c(c1)OCO2 (stereo unspecified) | inconclusive: 5.62 µM [inhibitor, full curve, poor fit] |
| CCCn1ncc(NC(=O)c2cccc(CN3CCC[C@@H]3COC)c2)n1 | inconclusive: 89.1 µM [inhibitor, single point] |
